Assay results taken from the RNAGym collection of RNA variant scans (doi:10.7554/elife.90254).
Read counts are not given, so values of variants with three or more changes are uncertain.

B1: LINE1-full (parent)
chain: UACGUAGGUGGUUUUCCCCUGAUAGUGCUAAGGGGGCCUGGAAGUUUGGACUGGGCAGAGCUCAACACAGCGUGGCAAAGUGGCUGUGGCUAGACUGCCUCUCUGGAUUCCUCGUCACUCAGCAGGGCAUCUCUGAGAGAAAUGCC

Variants of: B1
Assay: self-cleavage, relative activity (ratio to wild type); higher = more cleavage; in vitro, sequencing; the parent is a self-cleaving ribozyme

Row | Variant | self-cleavage
1 | U12A A78U U85C C103A U112C A138G | 0
2 | U12A U81C U102C A142G | 1.27
3 | U12C U39C A124U A140G | 2.42
4 | U12C U104C G135A | 2.12
5 | U12C U29C U102A A138U | 0.85
6 | U12C U20C C120U | 0.53
7 | U12C G60A G75A | 0.05
8 | U12C U39C U46A A50U U62C U85C | 0
9 | U12C U20C G25A U39A A138G A142G | 1.18
10 | U12C C101A U108C | 2.3
11 | U12C A42G A59U U109C U112A A129G | 2.12
12 | U12A A22C A77U | 1.23
13 | U12C A22G U45C U115C | 0
14 | U12A U87C U109A | 0.34
15 | G11C G35A U112A G114A U130C | 1.79
16 | U12C U23A A136G | 1.34
17 | G11A U14C A42G A59G U130C | 0.54
18 | U12C U15A A77G | 1.59
19 | U12A U47C A57U U96C C98U | 0.17
20 | U12A U52C U100C | 0.2
21 | G10U U47C A78G U100A | 0.23

Row | Variant | self-cleavage
22 | U12C A64G C111U | 0.57
23 | U12C U26A A124G | 0.37
24 | U12C C19U A57G U132C | 0
25 | U12C U15A A31U A59U C98A A141U | 0.39
26 | U12A G40A U46C A124G A136U | 0.6
27 | U12C C17G U81A U87C | 0.11
28 | U12A U73C G74A G83C U85C A140G | 0.23
29 | U12C A22C U47A A140G | 1.44
30 | U12C U109C U134C A142G | 2.57
31 | U12A A22G C120U | 0.97
32 | U12C A31G U47C C99A U104C | 1.02
33 | U12C A124U C133U U143C | 1.3
34 | U12C A59G A69G U73A | 0
35 | U12C G33U G36U U73C | 0.63
36 | U12C U62C A141G | 0
37 | U12C A57G A77G U130G | 0
38 | U12C A69U U108C | 0.14
39 | U12A U23C U52A | 0.78
40 | U12C G86A C111U | 0.01
41 | U12A U62A A65U G83A | 0.05
42 | U12A U62C U81A C113U | 0.08

Row | Variant | self-cleavage
43 | U12C A24C U134A | 1.79
44 | U12C C18U A31U A67G U85C | 0
45 | U12A U23C C56U U62C G93U | 0.04
46 | U12C U85C U112G | 0.84
47 | U12C U20C A140U | 1.49
48 | U12C G106U U108A A129G | 1.74
49 | U12C U20C G25U A42G U73A A79G A136G | 2.04
50 | U12C G35A U112C | 0.89
51 | U12A U13C U20G | 0.61
52 | U12C U46C U143A | 0.9
53 | G11A A57G U134C | 1.01
54 | U12C U73A U91C | 0.44
55 | U12C U96C U100A U130C | 0
56 | U12C U13C A64C A65U A78G | 0
57 | U12C A121G A136G | 2.1
58 | U12C U14A U62C U115C | 0.32
59 | U12C A31G G34U U81A G83A U104A | 1.68
60 | U12C U46C A77U A138G | 1.89
61 | U12C U73C A129G G144A C146U | 2.3
62 | U12C G86C A141G | 0.1
63 | U12C U100C G127U | 1.64

Row | Variant | self-cleavage
64 | U12A U14C A107G | 1.21
65 | U12C U108C A117G A124U A138C | 0
66 | U12A G88U A92G | 0
67 | U12C G53A A77G | 2.06
68 | U12C A94G G106U | 0.24
69 | U12C U15C A43U U45C A92U | 0.66
70 | U12C G25A A42G G83A U119C | 1.29
71 | G11C U45C A138G | 0.82
72 | U12C A78G A94G C98U U112C | 0.09
73 | U12A U100A A124U | 0.77
74 | U12C U29A A69G | 0
75 | U12C U14C G93A U132A | 0.19
76 | U12A U20A U45G C84A C101A | 0.11
77 | U12C C38A A57U | 0.28
78 | G11A U45A U87C A141G | 0.13
79 | U12C U14A A94U U100C A142G | 0.91
80 | G10U A67U U87C A94G U109C | 0
81 | G11U G35A U39C C146U | 0.77
82 | U12C U62C A69G A92G | 1.31
83 | G11A U14C A42G | 1.25
84 | U12A U46C C84U A124G A129G | 0.18
